Experimental data from the supplement of paper PMC8728848.
The list shows a part of the results.

How the values were obtained:
Assay in all cases: glycan array binding signal (z-score within array); higher = stronger binding
Details in all cases: glycan notation: IUPAC condensed, linker removed; mutation: R343K
[1] = molecular target: Gal(b1-3)[Fuc(a1-4)]GlcNAc(b1-3)Gal(b1-4)[Fuc(a1-3)]GlcNAc
Procedure, shortened: (§1)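 Columns mapping to the same glycan were averaged after glycan names were converted to IUPAC-condensed notation. The data come from 3228 arrays in the Consortium for Functional Glycomics database, limited to those with an available protein sequence. Binding is reported as a within-array Z-score averaged across arrays of one protein sequence and across linkers.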

[2] = molecular target: Gal(b1-3)[GlcNAc(b1-6)]GalNAc
Procedure, shortened: as §1

[3] = molecular target: Gal(b1-3)[Neu5Ac(a2-6)]GalNAc
Procedure, shortened: as §1

[4] = molecular target: Gal(b1-3)[Neu5Ac(a2-6)]GlcNAc(b1-6)Gal(b1-4)Glc
Procedure, shortened: as §1

[5] = molecular target: Gal(b1-3)[Neu5Ac(b2-6)]GalNAc
Procedure, shortened: as §1

[6] = molecular target: Gal(b1-4)GalNAc(a1-3)[Fuc(a1-2)]Gal(b1-4)GlcNAc
Procedure, shortened: as §1

[7] = molecular target: Gal(b1-4)GalNAc(b1-3)[Fuc(a1-2)]Gal(b1-4)GlcNAc
Procedure, shortened: as §1

[8] = molecular target: Gal(b1-4)Glc
Procedure, shortened: as §1

[9] = molecular target: Gal(b1-4)Glc6S
Procedure, shortened: as §1

[10] = molecular target: Gal(b1-4)GlcNAc
Procedure, shortened: as §1

[11] = molecular target: Gal(b1-4)GlcNAc(a1-6)Gal(b1-4)GlcNAc
Procedure, shortened: as §1

[12] = molecular target: Gal(b1-4)GlcNAc(b1-2)Man(a1-3)[Gal(b1-4)GlcNAc(b1-2)Man(a1-6)]Man(b1-4)GlcNAc(b1-4)GlcNAc
Procedure, shortened: as §1

[13] = molecular target: Gal(b1-4)GlcNAc(b1-3)Gal(b1-3)GlcNAc
Procedure, shortened: as §1

[14] = molecular target: Gal(b1-4)GlcNAc(b1-3)Gal(b1-4)Glc
Procedure, shortened: as §1

[15] = molecular target: Gal(b1-4)GlcNAc(b1-3)Gal(b1-4)GlcNAc
Procedure, shortened: as §1

[16] = molecular target: Gal(b1-4)GlcNAc(b1-3)Gal(b1-4)GlcNAc(b1-3)Gal(b1-4)GlcNAc
Procedure, shortened: as §1

[17] = molecular target: Gal(b1-4)GlcNAc(b1-3)Gal(b1-4)[Fuc(a1-3)]GlcNAc(b1-3)Gal(b1-4)[Fuc(a1-3)]GlcNAc
Procedure, shortened: as §1

[18] = molecular target: Gal(b1-4)GlcNAc(b1-3)GalNAc
Procedure, shortened: as §1

[19] = molecular target: Gal(b1-4)GlcNAc(b1-3)[Gal(b1-4)GlcNAc(b1-6)]Gal(b1-4)GlcNAc
Procedure, shortened: as §1

[20] = molecular target: Gal(b1-4)GlcNAc(b1-3)[GlcNAc(b1-6)]Gal(b1-4)GlcNAc
Procedure, shortened: as §1

[21] = molecular target: Gal(b1-4)GlcNAc(b1-6)Gal(b1-4)GlcNAc
Procedure, shortened: as §1

[22] = molecular target: Gal(b1-4)GlcNAc(b1-6)Gal(b1-4)GlcNAc(b1-6)GalNAc
Procedure, shortened: as §1

[23] = molecular target: Gal(b1-4)GlcNAc(b1-6)GalNAc
Procedure, shortened: as §1

[24] = molecular target: Gal(b1-4)GlcNAc(b1-6)[Gal(b1-3)]GalNAc
Procedure, shortened: as §1

[25] = molecular target: Gal3S(b1-3)GalNAc
Procedure, shortened: as §1

[26] = molecular target: Gal3S(b1-3)GlcNAc
Procedure, shortened: as §1

[27] = molecular target: Gal3S(b1-3)[Fuc(a1-4)]GlcNAc
Procedure, shortened: as §1

[28] = molecular target: Gal3S(b1-4)Glc
Procedure, shortened: as §1

[29] = molecular target: Gal3S(b1-4)Glc6S
Procedure, shortened: as §1

[30] = molecular target: Gal3S(b1-4)GlcNAc
Procedure, shortened: as §1

[31] = molecular target: Gal3S(b1-4)GlcNAc6S
Procedure, shortened: as §1

[32] = molecular target: Gal3S(b1-4)[Fuc(a1-3)]Glc
Procedure, shortened: as §1

[33] = molecular target: Gal3S4S(b1-4)GlcNAc
Procedure, shortened: as §1

[34] = molecular target: Gal3S6S(b1-4)GlcNAc
Procedure, shortened: as §1

[35] = molecular target: Gal3S6S(b1-4)GlcNAc6S
Procedure, shortened: as §1

[36] = molecular target: Gal4S(b1-4)GlcNAc
Procedure, shortened: as §1

[37] = molecular target: Gal4S6S(b1-4)GlcNAc
Procedure, shortened: as §1

[38] = molecular target: Gal6S(b1-4)Glc
Procedure, shortened: as §1

[39] = molecular target: Gal6S(b1-4)Glc6S
Procedure, shortened: as §1

[40] = molecular target: Gal6S(b1-4)GlcNAc
Procedure, shortened: as §1

[41] = molecular target: Gal6S(b1-4)GlcNAc6S
Procedure, shortened: as §1

[42] = molecular target: GalNAc(a1-3)Gal
Procedure, shortened: as §1

[43] = molecular target: GalNAc(a1-3)GalNAc
Procedure, shortened: as §1

[44] = molecular target: GalNAc(b1-3)Gal
Procedure, shortened: as §1

[45] = molecular target: GalNAc(b1-3)Gal(a1-4)Gal(b1-4)GlcNAc
Procedure, shortened: as §1

[46] = molecular target: GalNAc(b1-3)GalNAc
Procedure, shortened: as §1

[47] = molecular target: GalNAc(b1-4)GlcNAc
Procedure, shortened: as §1

[48] = molecular target: Glc(a1-4)Glc
Procedure, shortened: as §1

[49] = molecular target: Glc(a1-6)Glc(a1-6)Glc
Procedure, shortened: as §1

[50] = molecular target: Glc(b1-4)Glc
Procedure, shortened: as §1

[51] = molecular target: Glc(b1-6)Glc
Procedure, shortened: as §1

[52] = molecular target: GlcA(b1-3)Gal
Procedure, shortened: as §1

[53] = molecular target: GlcA(b1-3)GlcNAc
Procedure, shortened: as §1

[54] = molecular target: GlcA(b1-6)Gal
Procedure, shortened: as §1

[55] = molecular target: GlcNAc(a1-3)Gal(b1-4)GlcNAc
Procedure, shortened: as §1

[56] = molecular target: GlcNAc(a1-6)Gal(b1-4)GlcNAc
Procedure, shortened: as §1

[57] = molecular target: GlcNAc(b1-2)Gal(b1-3)GalNAc
Procedure, shortened: as §1

[58] = molecular target: GlcNAc(b1-2)Man(a1-3)[GlcNAc(b1-2)Man(a1-6)]Man(b1-4)GlcNAc(b1-4)GlcNAc
Procedure, shortened: as §1

[59] = molecular target: GlcNAc(b1-3)Gal
Procedure, shortened: as §1

[60] = molecular target: GlcNAc(b1-3)Gal(b1-3)GalNAc
Procedure, shortened: as §1

[61] = molecular target: GlcNAc(b1-3)Gal(b1-4)Glc
Procedure, shortened: as §1

[62] = molecular target: GlcNAc(b1-3)Gal(b1-4)GlcNAc
Procedure, shortened: as §1

[63] = molecular target: GlcNAc(b1-3)Gal(b1-4)GlcNAc(b1-3)Gal(b1-4)GlcNAc
Procedure, shortened: as §1

[64] = molecular target: GlcNAc(b1-3)GalNAc
Procedure, shortened: as §1

[65] = molecular target: GlcNAc(b1-3)Man
Procedure, shortened: as §1

[66] = molecular target: GlcNAc(b1-3)[GlcNAc(b1-4)][GlcNAc(b1-6)]GlcNAc
Procedure, shortened: as §1

[67] = molecular target: GlcNAc(b1-3)[GlcNAc(b1-6)]Gal(b1-4)GlcNAc
Procedure, shortened: as §1

[68] = molecular target: GlcNAc(b1-3)[GlcNAc(b1-6)]GalNAc
Procedure, shortened: as §1

[69] = molecular target: GlcNAc(b1-4)Gal(b1-4)GlcNAc
Procedure, shortened: as §1

[70] = molecular target: GlcNAc(b1-4)GlcNAc
Procedure, shortened: as §1

[71] = molecular target: GlcNAc(b1-4)GlcNAc(b1-4)GlcNAc
Procedure, shortened: as §1

[72] = molecular target: GlcNAc(b1-4)GlcNAc(b1-4)GlcNAc(b1-4)GlcNAc(b1-4)GlcNAc
Procedure, shortened: as §1

[73] = molecular target: GlcNAc(b1-4)GlcNAc(b1-4)GlcNAc(b1-4)GlcNAc(b1-4)GlcNAc(b1-4)GlcNAc
Procedure, shortened: as §1

[74] = molecular target: GlcNAc(b1-4)[GlcNAc(b1-6)]GalNAc
Procedure, shortened: as §1

[75] = molecular target: GlcNAc(b1-6)Gal(b1-4)GlcNAc
Procedure, shortened: as §1

Measured: glycan array binding signal (z-score)

B1: Surfactant Protein D (Human); Neck + Carbohydrate Recognition Domain (NCRD) (Homo sapiens) (protein)
chain: MLLFLLSALVLLTQPLGYLEAEMKTYSHRTMPSACTLVMCSSVESGLPGRDRDGREGPRGEKGDPGLPGAAGQAGMPGQAGPVGPKGDNGSVGEPGPKGDTGPSGPPGPPGVPGPAGREGALGKQGNIGPQGKPGPKGEAGPKGEVGAPGMQGSAGARGLAGPKGERGVPGERGVPGNTGAAGSAGAMGPQGSPGARGPPGLKGDKGIPGDKGAKGESGLPDVASLRQQVEALQGQVQHLQAAFSQYKKVELFPNGQSVGEKIFKTAQFVKPFTEAQLLCTQAGGQLASPRSAAENAALQQLVVAKNEAAFLSMTDSKTEGKFTYPTGESLVYSNWAPGEPNDDGGSEDCVEIFTNGKWNDKACGEKRLVVCEF
-0.159: [3] | [41] | [43] | [57]
-0.158: [19] | [52]
-0.154: [13] | [14] | [17] | [21]
-0.145: [6] | [29] | [33] | [60] | [63]
-0.16: [36] | [73]
-0.156: [42] | [44] | [47] | [66] | [67]
-0.14: [18]
-0.147: [69]
-0.157: [46] | [74]
-0.152: [4] | [64] | [70]
-0.151: [23] | [38] | [39] | [40] | [65]
0.704: [51]
-0.155: [15] | [16] | [20] | [25] | [26] | [35] | [37] | [68]
-0.13: [1]
-0.144: [58]
-0.148: [9] | [55] | [75]
-0.146: [5] | [10] | [22] | [45] | [49] | [54]
-0.15: [7] | [56] | [71]
-0.149: [12] | [24] | [48] | [53] | [61]
-0.143: [32]
-0.153: all other assays above
